# The campaign covered roughly 290,000 compounds. About 1,100 (0.38%) were called active. The inconclusive results got no clear call from the source; some entries with a clear call stand among them for comparison. Calls come from the whole dose curve; as a rule, active = well fitted inhibition curve with a large enough effect; inconclusive = small, poorly fitted or top-dose-only effect, or another doubt; inactive = no such curve, though single readings can be large or run the other way. Where the call is inconclusive, the potency comes from a doubtful curve fit.
# Biological target: Pyruvate kinase (Leishmania mexicana) (UniProt Q27686)
# Sequence of UniProt Q27686 (Q27686 whole entry, looked up): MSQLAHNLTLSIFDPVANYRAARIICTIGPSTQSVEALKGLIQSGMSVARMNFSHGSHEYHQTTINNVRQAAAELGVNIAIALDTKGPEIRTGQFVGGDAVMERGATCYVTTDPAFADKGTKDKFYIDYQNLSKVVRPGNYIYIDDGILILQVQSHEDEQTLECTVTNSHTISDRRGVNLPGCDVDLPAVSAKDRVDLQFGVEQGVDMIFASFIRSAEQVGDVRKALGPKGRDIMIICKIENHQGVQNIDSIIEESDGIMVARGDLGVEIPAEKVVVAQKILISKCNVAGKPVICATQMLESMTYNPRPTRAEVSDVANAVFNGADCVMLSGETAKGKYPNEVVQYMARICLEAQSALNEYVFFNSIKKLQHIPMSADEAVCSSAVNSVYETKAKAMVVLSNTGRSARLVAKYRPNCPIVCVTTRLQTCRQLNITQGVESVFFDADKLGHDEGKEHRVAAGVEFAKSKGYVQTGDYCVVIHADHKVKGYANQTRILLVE
# Experiment: qHTS Assay for Inhibitors of Leishmania Mexicana Pyruvate Kinase (LmPK)
# Conditions: purified LmPK, Kinase-Glo ATP luminescence, 1 h; activity change, negative = inhibition: at 57.5 µM (top of the series) unless noted
# Method in brief: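 Screened at intermediate enzyme activity to detect both inhibitors and activators: LmPK at 0.1 nM, with a 0.5 nM enzyme column as activation reference. PEP 0.5 mM, ADP 0.1 mM; ATP detected by luminescence after 1 h.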
# % is set by controls: 0 for no effect and ±100 for the full control effect; potency is the fitted concentration of half-maximal effect; tags give direction and shape of the fitted curve.
Structure (SMILES),"activity change, negative = inhibition",Potency
CCOc1ccc(NC(=O)c2cccnc2Cl)c([N+](=O)[O-])c1,inactive: 4.86%,–
COc1cccc(C(=O)Nc2cccc(C(C)=O)c2)c1,–,"inconclusive: 28.2 µM [falling, single point]"
COc1cccc(C(=O)Nc2ccc(C3CC3(Cl)Cl)cc2)c1 (configuration not stated),–,"inconclusive: 17.8 µM [falling, partial curve]"
O=C(c1cccs1)N1CCn2c1nc1ccccc12,–,"inconclusive: 25.1 µM [falling, partial curve]"
Cc1ccc(C(=O)Nc2ccc3c(c2)CCC3)cc1,–,"inconclusive: 28.2 µM [falling, partial curve]"
COc1ccc(-c2ccc3ccccc3n2)cc1,–,"inconclusive: 8.91 µM [falling, partial curve]"
COc1cccc2cc(C(=O)NC3CC4CCC3C4)oc12 (configuration not stated),inactive: -0.437%,–
FC(F)(F)c1ccccc1-n1c(-c2cnccn2)n[nH]c1=S,–,"inconclusive: 31.6 µM [falling, single point]"
c1ccc2[nH]c(-c3cscn3)nc2c1,–,"inconclusive: 31.6 µM [falling, single point]"
Cc1ccccc1OCC(=O)Nc1ccc(C(=O)Nc2ccccc2C(=O)O)cc1,inactive: -14.4%,–
COCCCNC(=O)C1CCC(=O)N1Cc1ccccc1Cl (configuration not stated),inactive: 6.19%,–
COc1ccc(C(CNC(=O)c2ccc(C)c(S(=O)(=O)Nc3ccccc3OC)c2)N2CCCC2)cc1 (configuration not stated),inactive: -6.81%,–
Cc1ccc(C(=O)N/N=C/c2ccc([N+](=O)[O-])s2)cc1,inactive: 3.21%,–
CSc1nc(O)c(N=Nc2ccc(F)cc2F)c(=O)[nH]1,–,active: 15.8 µM
c1ccc(-c2ccc(-c3ccccn3)nn2)nc1,–,active: 14.1 µM
O=C(Nc1ccc(Cl)cc1)Nc1nnc(SCc2ccc(Cl)cc2)s1,inactive: -4.72%,–
O=C(c1cnn(-c2ccccc2)c1)c1ccccc1O,–,"inconclusive: 31.6 µM [falling, partial curve]"
c1cn2cc(-c3ccc4c(c3)OCO4)nc2s1,–,"inconclusive: 14.1 µM [falling, partial curve]"
Cc1ccc(S(=O)(=O)Cc2ccc(C(=O)N3CCCCCC3)o2)cc1,inactive: 10.6%,–
Cc1ccc2nc(-c3cccc(NC(=O)c4ccco4)c3)[nH]c2c1,–,"inconclusive: 14.1 µM [falling, partial curve]"
CC(c1ccccc1)n1c(-c2ccccc2F)n[nH]c1=S (configuration not stated),–,"inconclusive: 28.2 µM [falling, single point]"

Structure (SMILES),"activity change, negative = inhibition",Potency
Cc1cc2nc(N3C(=O)CNC3=S)sc2cc1C,–,"inconclusive: 22.4 µM [falling, single point]"
O=C1NC(c2ccccc2Br)=N/C1=C\c1ccco1,–,"inconclusive: 15.8 µM [falling, partial curve]"
COc1ccc(N2Cc3ccccc3C2=O)cc1,–,active: 14.1 µM
O=S(=O)(c1ccccc1)N1c2cc(Cl)ccc2Oc2nc3ccccc3nc21,inactive: 0.353%,–
COc1ccc(S(=O)(=O)Nc2c(C(=O)O)[nH]c3ccccc23)cc1,inactive: -0.592%,–
CCOc1ccc2nc(NC(=O)C34CC5CC(CC(NC(C)=O)(C5)C3)C4)sc2c1,inactive: -9.38%,–
CCOc1ccc(C(=O)Nc2cccc(SC)c2)cc1,–,"inconclusive: 22.4 µM [falling, single point]"
Oc1cccc2ccc(/C=C/c3cccs3)nc12,–,active: 22.4 µM
O=C(CCC(=O)c1cccs1)c1cccs1,–,"inconclusive: 20 µM [falling, single point]"
O=C(Nc1ccccc1F)Oc1cccc(OC(=O)Nc2ccccc2F)c1,–,"inconclusive: 28.2 µM [falling, single point]"
Cc1c(-c2ccc(Br)cc2)nc2ccccn12,–,"inconclusive: 15.8 µM [falling, partial curve]"
COc1ccc(C(=O)NNC(=S)NC(=O)/C=C/c2cccs2)cc1,–,active: 25.1 µM
CCc1cccc(NC(=O)Cn2c(=O)c3cccn3c3ccccc32)c1,inactive: -10.8%,–
COC(=O)c1sccc1NC(=O)Nc1ccc(F)cc1,–,"inconclusive: 25.1 µM [falling, partial curve, poor fit]"
O=C(CCc1ccccc1F)N1CCN(c2ccc(C(F)(F)F)cn2)CC1,inactive: 0.797%,–
COc1ccccc1NC(=O)N1CCN(C(=O)Nc2ccccc2OC)CC1,inactive: 0.475%,–
COc1cc(-c2n[nH]c(=S)n2/N=C/c2cccn2C)cc(OC)c1OC,–,active: 7.94 µM
CC(C)c1ccc(S(=O)(=O)/N=C2/C=C(Sc3ncn[nH]3)C(=O)c3ccccc32)cc1,–,"inconclusive: 3.55 µM [falling, full curve]"
Nc1nc(CN2CCN(Cc3ccccc3)CC2)nc(Nc2ccccc2)n1,inactive: 4.78%,–
CCC(=O)Nc1cccc(C(=O)/C=C/c2ccccc2)c1,inactive: -1.37%,–
O=[N+]([O-])c1cccnc1N/N=C/c1ccccc1O,–,active: 14.1 µM

Structure (SMILES),"activity change, negative = inhibition",Potency
Cc1ccccc1/C(N)=N/OC(=O)c1cccs1,–,"inconclusive: 25.1 µM [falling, partial curve]"
Oc1[nH]c2ccccc2c1C=Nc1ccc2c(c1)OCCO2,–,"inconclusive: 28.2 µM [falling, partial curve]"
C/C(=N/NC(=O)c1ccccc1)C(=O)O,–,"inconclusive: 25.1 µM [falling, single point]"
S=c1[nH]cc(-c2ccc(Cl)cc2)n1-c1ccccc1,–,"inconclusive: 2.51 µM [falling, full curve, poor fit]"
S=c1[nH]nc(-c2ccccc2Cl)n1CC1CCCO1 (configuration not stated),–,"inconclusive: 39.8 µM [falling, single point]"
CN(C)c1ccc(N=Cc2ccco2)cc1,–,"inconclusive: 28.2 µM [falling, single point]"
COc1ccc2c(c1)/C(=N/OC(=O)c1cccs1)CCC2,inactive: 1.85%,–
O=C(CSc1ccc(-c2ccccc2)nn1)c1ccccc1,inactive: 2.17%,–
COc1cccc(-c2nnc(-c3ccc(C)o3)o2)c1,–,"inconclusive: 39.8 µM [falling, single point]"
Cc1ccsc1/C=N/Nc1nc(=O)[nH]nc1C,–,"inconclusive: 39.8 µM [falling, single point]"
Cc1ccccc1-c1n[nH]c(=S)n1/N=C/c1c(C)nn(-c2ccccc2)c1C,–,"inconclusive: 3.16 µM [falling, full curve, poor fit]"
CCNC(=S)NNC(=O)c1cc(-c2cccc(C)c2)nc2ccccc12,–,"inconclusive: 17.8 µM [falling, partial curve]"
CCOCC(=O)Nc1nc2ccc(OC)cc2s1,–,"inconclusive: 15.8 µM [falling, partial curve]"
Cn1c(=O)cc2c3c(c(N4CCCCC4)ccc31)C(=O)c1ccccc1-2,–,"inconclusive: 15.8 µM [falling, partial curve]"
COCCNC(=O)/C(C#N)=C/c1ccc(O)cc1,–,active: 12.6 µM
Nc1ccc(-c2nc3c(Cl)c(N)ccc3[nH]2)cc1,–,"inconclusive: 20 µM [falling, partial curve]"
COCC(=O)Nc1cc(C(=O)Nc2ccccc2)ccc1Cl,–,"inconclusive: 28.2 µM [falling, partial curve]"
O=[N+]([O-])c1ccc(OCc2n[nH]c(=S)n2-c2ccccc2)cc1,–,"inconclusive: 28.2 µM [falling, partial curve]"
Cc1ccccc1NC(=O)c1ccc(CSc2ncccn2)cc1,–,"inconclusive: 28.2 µM [falling, single point]"
O=C1c2ccccc2C(=O)N1OS(=O)(=O)c1ccccc1,–,"inconclusive: 20 µM [falling, partial curve]"
COc1ccc(NC(C)=O)cc1CP(=O)(c1ccccc1)c1ccccc1,inactive: 5.04%,–

Structure (SMILES),"activity change, negative = inhibition",Potency
c1ccc2sc(-c3ccncc3)nc2c1,–,"inconclusive: 15.8 µM [falling, partial curve]"
O=C(Nc1ccc2c(c1)OCCO2)c1ccc2nccnc2c1,–,"inconclusive: 28.2 µM [falling, partial curve]"
Brc1ccccc1-c1nc(-c2ccccc2)no1,–,"inconclusive: 17.8 µM [falling, partial curve]"
COc1cccc(NC(=O)/C=C/c2ccco2)c1,–,active: 15.8 µM
CC(C)(C)c1nnc(NC(=O)c2cccs2)s1,–,"inconclusive: 11.2 µM [falling, partial curve]"
Clc1ccccc1Nc1nnc(-c2ccncc2)s1,–,active: 4.47 µM
O=C(Nc1ccc(Cl)cn1)c1ccc2c(c1)OCCO2,–,active: 28.2 µM
Cc1ccc(N/C=C/C(=O)c2cccs2)cc1,–,active: 15.8 µM
CCn1ncc(/C=C2/SC(=S)NC2=O)c1C,–,"inconclusive: 17.8 µM [falling, single point]"
CCc1ccc(S(=O)(=O)Nc2ccc(O)c3ccccc23)cc1,–,"inconclusive: 12.6 µM [falling, partial curve]"
Cc1ccc(-c2nnc(-c3ccccc3)o2)cc1,–,"inconclusive: 17.8 µM [falling, partial curve]"
[O-][n+]1c(/C=C/c2ccccc2)ccc2ccccc21,–,"inconclusive: 17.8 µM [falling, single point]"
COc1cc(/C=C(\C#N)c2ccccn2)ccc1OCc1ccc(Cl)cc1,inactive: 3.04%,–
Fc1ccc(N/N=C2/CC(c3ccccc3)Oc3ccccc32)c(F)c1 (configuration not stated),inactive: -0.305%,–
O=C(/C=C/Nc1ccccc1Br)c1ccccn1,–,active: 5.01 µM
COc1ccc(C(=O)Nc2cccc(C)c2)cc1,–,active: 14.1 µM
O=C(O)c1ccc(-c2nnc(-c3ccccc3)o2)cc1,–,active: 12.6 µM
CN=c1scc(C)n1/N=C/c1ccc2c(c1)OCO2,–,active: 15.8 µM
O=C(Nc1ccc(Cl)cc1)Nc1ccccc1C(=O)O,–,"inconclusive: 28.2 µM [falling, partial curve]"

# Reference: PubChem BioAssay AID1721 (National Center for Advancing Translational Sciences (NCATS), 2009)
